{
  "source": "the supplement of paper PMC8728848",
  "binders": {"B1": {"name": "UDA (Urtica dioica), P11218 (protein)", "chain": "MMMRFLSAVVIMSSAMAVGLVSAQRCGSQGGGGTCPALWCCSIWGWCGDSEPYCGRTCENKCWSGERSDHRCGAAVGNPPCGQDRCCSVHGWCGGGNDYCSGSKCQYRCSSSVRGPRVALSGNSTANSIGNVVVTEPLFDQMFSHRKDCPSQGFYSYHSFLVAAESFPAFGTIGDVATRKREVAAFLAHISQATSGERSDVENPHAWGLCHINTTTVTENDFCTSSDWPCAAGKKYSPRGPIQLTHNFNYGLAGQAIGEDLIQNPDLVEKDPIISFKTALWFWMSQHDNKPSCHDIVLNANSAANRIPNKGVIGNIISRAFGHDDFAVRSSSIGFYKRYCDMLGVSYGHDLKYWFDNTPSSEFQRIQMRVAA"}},
  "assay_in_all_cases": "glycan array binding signal (z-score within array); higher = stronger binding",
  "details_in_all_cases": "glycan notation: IUPAC condensed, linker removed",
  "key": {"[1]": {"target": "Man(a1-2)Man(a1-2)Man(a1-3)Man", "in_short": "(§1)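 The binding signal is a Z-score computed within each array and averaged over linkers. Arrays of the same protein sequence at different concentrations or buffers were also averaged together. Data originate from 3228 arrays in the Consortium for Functional Glycomics database, kept only where the protein sequence was available.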"}, "[2]": {"target": "Man(a1-2)Man(a1-2)Man(a1-6)[Man(a1-3)]Man", "in_short": "as §1"}, "Man(a1-2)Man(a1-3)Man": {"target": "Man(a1-2)Man(a1-3)Man", "in_short": "as §1"}, "[3]": {"target": "Man(a1-2)Man(a1-3)[Man(a1-2)Man(a1-6)]Man", "in_short": "as §1"}, "[4]": {"target": "Man(a1-2)Man(a1-3)[Man(a1-2)Man(a1-6)]Man(a1-6)[Man(a1-2)Man(a1-2)Man(a1-3)]Man", "in_short": "as §1"}, "[5]": {"target": "Man(a1-2)Man(a1-3)[Man(a1-2)Man(a1-6)]Man(a1-6)[Man(a1-2)Man(a1-2)Man(a1-3)]Man(b1-4)GlcNAc(b1-4)GlcNAc", "in_short": "as §1"}, "[6]": {"target": "Man(a1-2)Man(a1-3)[Man(a1-2)Man(a1-6)]Man(a1-6)[Man(a1-3)[Man(a1-6)]Man(a1-6)]Man(b1-4)GlcNAc(b1-4)GlcNAc", "in_short": "as §1"}, "[7]": {"target": "Man(a1-2)Man(a1-3)[Man(a1-6)]Man(a1-6)[Man(a1-2)Man(a1-3)]Man(b1-4)GlcNAc(b1-4)GlcNAc", "in_short": "as §1"}, "[8]": {"target": "Man(a1-2)Man(a1-6)[Man(a1-3)]Man(a1-6)[Man(a1-2)Man(a1-2)Man(a1-3)]Man", "in_short": "as §1"}, "[9]": {"target": "Man(a1-2)Man(a1-6)[Man(a1-3)]Man(a1-6)[Man(a1-2)Man(a1-2)Man(a1-3)]Man(b1-4)GlcNAc(b1-4)GlcNAc", "in_short": "as §1"}, "Man(a1-3)[Man(a1-6)]Man": {"target": "Man(a1-3)[Man(a1-6)]Man", "in_short": "as §1"}, "[10]": {"target": "Man(a1-3)[Man(a1-6)]Man(a1-6)[Man(a1-2)Man(a1-3)]Man(b1-4)GlcNAc(b1-4)GlcNAc", "in_short": "as §1"}, "[11]": {"target": "Man(a1-3)[Man(a1-6)]Man(a1-6)[Man(a1-3)]Man", "in_short": "as §1"}, "[12]": {"target": "Man(a1-3)[Man(a1-6)]Man(a1-6)[Man(a1-3)]Man(b1-4)GlcNAc(b1-4)GlcNAc", "in_short": "as §1"}, "[13]": {"target": "Man(a1-3)[Man(a1-6)]Man(b1-4)GlcNAc(b1-4)GlcNAc", "in_short": "as §1"}, "[14]": {"target": "Man(a1-3)[Man(a1-6)]Man(b1-4)GlcNAc(b1-4)[Fuc(a1-6)]GlcNAc", "in_short": "as §1"}, "Man(a1-6)Man": {"target": "Man(a1-6)Man", "in_short": "as §1"}, "Man(b1-4)GlcNAc": {"target": "Man(b1-4)GlcNAc", "in_short": "as §1"}, "MurNAc(b1-4)GlcNAc": {"target": "MurNAc(b1-4)GlcNAc", "in_short": "as §1"}, "Neu5Ac(a2-3)Gal": {"target": "Neu5Ac(a2-3)Gal", "in_short": "as §1"}, "[15]": {"target": "Neu5Ac(a2-3)Gal(b1-3)GalNAc", "in_short": "as §1"}, "[16]": {"target": "Neu5Ac(a2-3)Gal(b1-3)GalNAc(b1-3)Gal(a1-4)Gal(b1-4)Glc", "in_short": "as §1"}, "[17]": {"target": "Neu5Ac(a2-3)Gal(b1-3)GalNAc(b1-4)[Neu5Ac(a2-3)]Gal(b1-4)Glc", "in_short": "as §1"}, "[18]": {"target": "Neu5Ac(a2-3)Gal(b1-3)GalNAc(b1-4)[Neu5Ac(a2-8)Neu5Ac(a2-3)]Gal(b1-4)Glc", "in_short": "as §1"}, "[19]": {"target": "Neu5Ac(a2-3)Gal(b1-3)GalNAc6S", "in_short": "as §1"}, "[20]": {"target": "Neu5Ac(a2-3)Gal(b1-3)GlcNAc", "in_short": "as §1"}, "[21]": {"target": "Neu5Ac(a2-3)Gal(b1-3)GlcNAc(b1-2)Man", "in_short": "as §1"}, "[22]": {"target": "Neu5Ac(a2-3)Gal(b1-3)GlcNAc(b1-2)Man(a1-3)[GlcNAc(b1-4)][Neu5Ac(a2-3)Gal(b1-3)GlcNAc(b1-2)Man(a1-6)]Man(b1-4)GlcNAc(b1-4)GlcNAc", "in_short": "as §1"}, "[23]": {"target": "Neu5Ac(a2-3)Gal(b1-3)GlcNAc(b1-2)Man(a1-3)[Neu5Ac(a2-3)Gal(b1-3)GlcNAc(b1-2)Man(a1-6)]Man(b1-4)GlcNAc(b1-4)GlcNAc", "in_short": "as §1"}, "[24]": {"target": "Neu5Ac(a2-3)Gal(b1-3)GlcNAc(b1-3)Gal(b1-3)GlcNAc", "in_short": "as §1"}, "[25]": {"target": "Neu5Ac(a2-3)Gal(b1-3)GlcNAc(b1-3)Gal(b1-4)GlcNAc", "in_short": "as §1"}, "[26]": {"target": "Neu5Ac(a2-3)Gal(b1-3)GlcNAc(b1-3)GalNAc", "in_short": "as §1"}, "[27]": {"target": "Neu5Ac(a2-3)Gal(b1-3)GlcNAc(b1-4)Gal(b1-4)Glc", "in_short": "as §1"}, "[28]": {"target": "Neu5Ac(a2-3)Gal(b1-3)GlcNAc(b1-6)GalNAc", "in_short": "as §1"}, "[29]": {"target": "Neu5Ac(a2-3)Gal(b1-3)GlcNAc6S", "in_short": "as §1"}, "[30]": {"target": "Neu5Ac(a2-3)Gal(b1-3)[Fuc(a1-4)]GlcNAc", "in_short": "as §1"}, "[31]": {"target": "Neu5Ac(a2-3)Gal(b1-3)[Fuc(a1-4)]GlcNAc(b1-3)Gal(b1-3)[Fuc(a1-4)]GlcNAc", "in_short": "as §1"}},
  "note": "Some of the results follow.",
  "data": [
    {"binder": "B1", "values": [
      {"measurement": "glycan array binding signal (z-score)", "setting": "[1]", "result": -0.185},
      {"measurement": "glycan array binding signal (z-score)", "setting": "[2]", "result": -0.184},
      {"measurement": "glycan array binding signal (z-score)", "setting": "Man(a1-2)Man(a1-3)Man", "result": -0.182},
      {"measurement": "glycan array binding signal (z-score)", "setting": "[3]", "result": -0.192},
      {"measurement": "glycan array binding signal (z-score)", "setting": "[4]", "result": -0.175},
      {"measurement": "glycan array binding signal (z-score)", "setting": "[5]", "result": 4.32},
      {"measurement": "glycan array binding signal (z-score)", "setting": "[6]", "result": 4.79},
      {"measurement": "glycan array binding signal (z-score)", "setting": "[7]", "result": 4.54},
      {"measurement": "glycan array binding signal (z-score)", "setting": "[8]", "result": -0.169},
      {"measurement": "glycan array binding signal (z-score)", "setting": "[9]", "result": 8.27},
      {"measurement": "glycan array binding signal (z-score)", "setting": "Man(a1-3)[Man(a1-6)]Man", "result": -0.217},
      {"measurement": "glycan array binding signal (z-score)", "setting": "[10]", "result": 10.8},
      {"measurement": "glycan array binding signal (z-score)", "setting": "[11]", "result": -0.167},
      {"measurement": "glycan array binding signal (z-score)", "setting": "[12]", "result": 5.89},
      {"measurement": "glycan array binding signal (z-score)", "setting": "[13]", "result": 6.43},
      {"measurement": "glycan array binding signal (z-score)", "setting": "[14]", "result": 1.88},
      {"measurement": "glycan array binding signal (z-score)", "setting": "Man(a1-6)Man", "result": -0.164},
      {"measurement": "glycan array binding signal (z-score)", "setting": "Man(b1-4)GlcNAc", "result": -0.171},
      {"measurement": "glycan array binding signal (z-score)", "setting": "MurNAc(b1-4)GlcNAc", "result": -0.157},
      {"measurement": "glycan array binding signal (z-score)", "setting": "Neu5Ac(a2-3)Gal", "result": -0.191},
      {"measurement": "glycan array binding signal (z-score)", "setting": "[15]", "result": -0.188},
      {"measurement": "glycan array binding signal (z-score)", "setting": "[16]", "result": -0.171},
      {"measurement": "glycan array binding signal (z-score)", "setting": "[17]", "result": -0.182},
      {"measurement": "glycan array binding signal (z-score)", "setting": "[18]", "result": -0.175},
      {"measurement": "glycan array binding signal (z-score)", "setting": "[19]", "result": -0.191},
      {"measurement": "glycan array binding signal (z-score)", "setting": "[20]", "result": -0.164},
      {"measurement": "glycan array binding signal (z-score)", "setting": "[21]", "result": -0.155},
      {"measurement": "glycan array binding signal (z-score)", "setting": "[22]", "result": -0.176},
      {"measurement": "glycan array binding signal (z-score)", "setting": "[23]", "result": -0.162},
      {"measurement": "glycan array binding signal (z-score)", "setting": "[24]", "result": -0.178},
      {"measurement": "glycan array binding signal (z-score)", "setting": "[25]", "result": -0.15},
      {"measurement": "glycan array binding signal (z-score)", "setting": "[26]", "result": -0.172},
      {"measurement": "glycan array binding signal (z-score)", "setting": "[27]", "result": -0.174},
      {"measurement": "glycan array binding signal (z-score)", "setting": "[28]", "result": -0.174},
      {"measurement": "glycan array binding signal (z-score)", "setting": "[29]", "result": -0.152},
      {"measurement": "glycan array binding signal (z-score)", "setting": "[30]", "result": -0.188},
      {"measurement": "glycan array binding signal (z-score)", "setting": "[31]", "result": -0.166}
    ]}
  ]
}
